Measured values as given in article PMC12136788.
The other results are listed elsewhere or left out.

B1: 118376450_118376570_9926_CDS_ENSG00000118058_ENST00000534358|human|control|control (ssRNA)
RNA: GGGAGUUCUACAGUCCGACGAUCUGUUGAUGUGCCUGCCGCUGUGGCAGCAGUUCCUCCCACACUCUGUGGUAACAGGGGUGCCGGUUCAAAAUACAUGAUGCUAGAUUUAGAUCUUUUUAUGAUGUUGGGGACAGUUCGGUGCAACAGAGGAUUGAGCAUCA
B2: 101925690_101925935_438_3pUTR_ENSMUSG00000017314_ENSMUST00000017458|mouse|control|control (ssRNA)
RNA: GGGAGUUCUACAGUCCGACGAUCGGCCUGGGCUUGGGGGUGGUGUCUCAUAGGUCUUUGAAGCCACUGAGUCAUGUGUCUCCAGGAGGGACUGGAAGUGGGGCUCCUGGAGGAUGCGUGCCAGCUCUGCAGCGGUGCUGCUCUCAACAGAGGAUUGAGCAUCA
B3: 36137377_36137497_4277_3pUTR_ENSG00000100320_ENST00000405409|human|control|control (ssRNA)
RNA: GGGAGUUCUACAGUCCGACGAUCGUAAGUUUUCUGGAAUUAUCAGCCAGCAUCCUCUAACAAACUCACGAAAUGCCAGACUCCUCUGACUCUCUUUUUUAAUACAGUGAGAACCAGAGUCAGGAACAGACAAGCAGUGCUGCUCAACAGAGGAUUGAGCAUCA
B4: chr1:59925254:59925255:+_ENSMUSG00000067336_ENSMUST00000087435|mus_mus|FALSE|FALSE (ssRNA)
RNA: GGGAGUUCUACAGUCCGACGAUCAUCUUGUUCUGAACAUGGAUUGCUGUUGUUGUUAUUGGAAUUUGUUCGGCCACCUUCUAAUGGCCGUUCCCUCCUAUCUACCAAACGAUCCAGAACCCCUUCAUCAUGGCCAGCCUGUUGCAACAGAGGAUUGAGCAUCA
B5: chr9:4385736:4385737:+_ENSMUSG00000041124_ENSMUST00000047173|mus_mus|motif|central (ssRNA)
RNA: GGGAGUUCUACAGUCCGACGAUCCUUGGCACUAAUGACAUCUUGGACUGGGUAAUUCUUUCUUGUGAAGACAACGGUGCGGAACAUGGUGAAGCCUCUCCUGAGGCUGGUAGCAUCCUACACCCAUUUACUUUGACCACCAAACAACAGAGGAUUGAGCAUCA
B6: 33587546_33587666_2174_3pUTR_ENSMUSG00000028274_ENSMUST00000108153|mouse|control|control (ssRNA)
RNA: GGGAGUUCUACAGUCCGACGAUCAUCUAUUCACAUACAAACAAGGCCUCUAUUUCAUUAACUUCAAUCUGAUUUAAACCUUUGGGUAUUUCAAUCUGUAGACUCCACAGGGUAAGGCUGAAUUUAUCAGGUAUAAAUAAAAUACAACAGAGGAUUGAGCAUCA
B7: chr2:216981417:216981418:+_ENSG00000079246_ENST00000392132|hu_hu|hu_hu_hu_mus_True|68_88 (ssRNA)
RNA: GGGAGUUCUACAGUCCGACGAUCCUGAUACUGGUCCUUGCCAGCAAGGGGAUUGUCAGUGCCAUCUGUACCAAACAGGACUAACGCAAUCUCAUCUUUGCUCUCCGAAAAUACCUGUCGUUGGACAAACAUAGUCAUCACUUUCAACAGAGGAUUGAGCAUCA
B8: chrX:71549400:71549401:+_ENSMUSG00000019087_ENSMUST00000019231|mus_hu|mus_mus_mus_hu_False|8_98 (ssRNA)
RNA: GGGAGUUCUACAGUCCGACGAUCGCAGUAGGAAGAGCAAACCUUUCCAGUCCAGUGCGCUGCAGGGUGGGAAAGCAACAACACGGACACCGUCCCACCCUCAACCCCCCCACUGGCACAGGGUCACAUCUGGGUCAUCAAAGACAACAGAGGAUUGAGCAUCA
B9: chr2:153055717:153055718:-_ENSMUSG00000051413_ENSMUST00000056924|mus_hu|FALSE|FALSE (ssRNA)
RNA: GGGAGUUCUACAGUCCGACGAUCCUCAAGGGUCCCACAGUGGAGGUCCCUGAGCUACCUCCCUUCCGUGAGUGGGAAGAGUGAAGCCCAUGAAGAACUGAGAUGAAGCAAGGAUGGGGUUCCUGGGCUCCAGGCAAGGGCUGUCAACAGAGGAUUGAGCAUCA
B10: chr14:102449733:102449734:+_ENSG00000197102_ENST00000360184|hu_hu|FALSE|FALSE (ssRNA)
RNA: GGGAGUUCUACAGUCCGACGAUCCAAUACCUGAAGUUUCUCAUACUCAUCAUCCCAAGUCUGAAAAACUUCAAAGCAUGCUACCAUAACUUUUUCAAAUUCUUCAUAAGCAACAUGCAUCAAUUUCCUAGUGCCCAAUACUUUCAACAGAGGAUUGAGCAUCA
B11: chr9:109012998:109012999:+_ENSMUSG00000053646_ENSMUST00000072093|mus_hu|FALSE|FALSE (ssRNA)
RNA: GGGAGUUCUACAGUCCGACGAUCGUUCCCCAUCUGCACCGUGAACUCAGGCAAAGAGUCAGGUGCCUCUCGGAGGGCAUGGUGCCGUGGCAGGGGCUGCUCCACGGGGGGCUCGCAGUACAGGUGGUGCCGCGUCAGCGUCUUCAACAGAGGAUUGAGCAUCA
B12: 135070555_135070675_2121_3pUTR_ENSMUSG00000028165_ENSMUST00000029815|mouse|control|control (ssRNA)
RNA: GGGAGUUCUACAGUCCGACGAUCGACGAUUCUAUUCAAAGCCUCAAUUAAGAAAAGAUCAAUUAAAAGCAAAGCAUAUAAAGGUUUGUUGCGGGGGGGGGGGGGGGGGAAGAGAAAUAGAGAGUAAAAGCAGCAACCUUUGCUCAACAGAGGAUUGAGCAUCA
B13: 19964705_19964825_1172_3pUTR_ENSMUSG00000020152_ENSMUST00000000137|mouse|control|control (ssRNA)
RNA: GGGAGUUCUACAGUCCGACGAUCCACCAAGUUUCUCCAGCACACGGACACCCUUUUCUUGGUACUCUUGUCUGGUCAUCCAAAAGUUGUCUUUGUCUUUCAUGAUGUCUGCUAGGACUGCGCCACCCAAGAACACCAUGUGCUCAACAGAGGAUUGAGCAUCA
B14: chr16:36023280:36023281:+_ENSMUSG00000022905_ENSMUST00000004054|mus_hu|FALSE|FALSE (ssRNA)
RNA: GGGAGUUCUACAGUCCGACGAUCUGUCUGAAUAUCAUCCCCUGUGACAAUGUUUCCCACAGCUCGCAAAGCAGGAGAAACCACUUUAUAAUCAUUAUGCAUCAGCAGUUCCACAAGUCUCCUACAUACUCCCGCAUCGAUGACCAACAGAGGAUUGAGCAUCA

biological target: T1, UNK ZnF1-3 (human, UniProt Q9C0B0 31-174); assay: nsRBNS (natural sequence RNA bind-n-seq); RBNS binding buffer (assumed for nsRBNS): 25 mM Tris pH 7.5, 150 mM KCl, 3 mM MgCl2, 0.01% Triton X-100, 500 ug/ml BSA, 20 U/ml SUPERase-In, 4 C; UNK is unkempt and MSI1 is Musashi-1; names of the RNAs are library labels; protein concentration not given here; high values mean tight binding
T1 sequence: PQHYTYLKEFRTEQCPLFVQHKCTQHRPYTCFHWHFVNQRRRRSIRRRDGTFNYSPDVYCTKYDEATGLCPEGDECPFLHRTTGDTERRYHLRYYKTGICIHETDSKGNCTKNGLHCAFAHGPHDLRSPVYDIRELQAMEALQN

| Binder | binding signal [enrichment R] |
| --- | --- |
| B1 | 0.587 |
| B2 | 0.781 |
| B3 | 0.702 |
| B4 | 0.568 |
| B5 | 0.756 |
| B6 | 1.17 |
| B7 | 0.95 |
| B8 | 0.928 |
| B9 | 0.999 |
| B10 | 0.609 |
| B11 | 0.43 |
| B12 | 0 |
| B13 | 0.735 |
| B14 | 1.22 |
